According to publication PMC12831199:
Results are given in words; binding and its absence hold for the method and conditions named. Binding seen in cells or lysates may run through a third protein. Some entries that bind do so weakly or less than the wild type. For some of these results: Sequences can lack the tags named with a protein. Each block holds one binder with its values, some of them ahead of it.

Amino acid sequences for entries named in this document (tags omitted). A change or cut given only in a name is not applied to a line headed by its entry. Chains listed by the source or under a name are the forms on record and can include a tag or linker. Residues count along the entry.
UniProt P23201: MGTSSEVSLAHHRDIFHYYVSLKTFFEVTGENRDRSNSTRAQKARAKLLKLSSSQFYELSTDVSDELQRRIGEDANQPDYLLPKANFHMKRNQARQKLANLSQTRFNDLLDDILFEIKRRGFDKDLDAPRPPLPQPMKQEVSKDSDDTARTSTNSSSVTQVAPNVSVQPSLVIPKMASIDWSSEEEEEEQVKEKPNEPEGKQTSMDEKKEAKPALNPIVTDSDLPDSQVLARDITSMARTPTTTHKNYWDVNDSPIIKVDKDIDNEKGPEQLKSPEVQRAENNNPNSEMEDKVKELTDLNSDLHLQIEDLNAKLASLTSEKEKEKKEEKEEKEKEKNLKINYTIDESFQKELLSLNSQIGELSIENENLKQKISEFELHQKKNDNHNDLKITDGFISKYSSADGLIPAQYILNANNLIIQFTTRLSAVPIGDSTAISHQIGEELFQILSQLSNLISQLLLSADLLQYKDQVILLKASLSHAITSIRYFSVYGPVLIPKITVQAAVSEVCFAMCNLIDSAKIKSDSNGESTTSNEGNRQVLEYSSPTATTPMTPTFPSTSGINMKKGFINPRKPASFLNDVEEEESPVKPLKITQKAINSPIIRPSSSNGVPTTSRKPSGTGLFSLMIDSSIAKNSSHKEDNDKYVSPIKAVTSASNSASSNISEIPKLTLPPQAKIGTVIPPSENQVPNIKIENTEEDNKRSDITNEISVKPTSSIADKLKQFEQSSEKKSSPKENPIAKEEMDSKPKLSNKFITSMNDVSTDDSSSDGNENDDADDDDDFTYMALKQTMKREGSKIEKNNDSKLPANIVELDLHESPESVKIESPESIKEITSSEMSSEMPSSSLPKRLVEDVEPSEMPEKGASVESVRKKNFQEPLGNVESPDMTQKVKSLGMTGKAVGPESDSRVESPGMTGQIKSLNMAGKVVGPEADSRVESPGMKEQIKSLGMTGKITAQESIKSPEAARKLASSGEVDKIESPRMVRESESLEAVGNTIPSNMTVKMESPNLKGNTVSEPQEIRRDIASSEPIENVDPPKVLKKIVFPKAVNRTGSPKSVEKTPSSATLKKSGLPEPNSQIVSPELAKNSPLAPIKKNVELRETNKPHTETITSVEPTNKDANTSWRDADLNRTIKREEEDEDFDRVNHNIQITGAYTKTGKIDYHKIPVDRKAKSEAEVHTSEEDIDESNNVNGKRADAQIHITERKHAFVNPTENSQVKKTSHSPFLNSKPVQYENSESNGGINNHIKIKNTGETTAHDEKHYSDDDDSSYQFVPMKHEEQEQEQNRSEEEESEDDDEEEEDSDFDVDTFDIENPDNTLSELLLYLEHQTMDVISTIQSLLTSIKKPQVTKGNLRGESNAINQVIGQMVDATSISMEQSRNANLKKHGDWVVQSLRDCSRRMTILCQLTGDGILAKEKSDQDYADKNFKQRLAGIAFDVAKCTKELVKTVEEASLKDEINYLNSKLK
SHD1CRU: residues 1-124 of P23201
SHD1CRU with L51A (P23201, form named): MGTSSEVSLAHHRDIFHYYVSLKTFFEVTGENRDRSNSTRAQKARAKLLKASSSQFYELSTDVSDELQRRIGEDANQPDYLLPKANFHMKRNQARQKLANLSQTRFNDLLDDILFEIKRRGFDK
SHD1CRU with L101A (P23201, form named): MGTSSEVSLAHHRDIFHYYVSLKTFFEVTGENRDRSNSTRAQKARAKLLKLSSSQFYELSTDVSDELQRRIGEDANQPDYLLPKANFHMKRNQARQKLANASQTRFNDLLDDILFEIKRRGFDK
SHD1CRU with L48A (P23201, form named): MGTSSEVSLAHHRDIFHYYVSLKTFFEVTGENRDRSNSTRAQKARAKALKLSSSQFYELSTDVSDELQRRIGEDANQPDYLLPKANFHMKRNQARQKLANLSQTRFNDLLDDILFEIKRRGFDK
SHD1CRU with L109A (P23201, form named): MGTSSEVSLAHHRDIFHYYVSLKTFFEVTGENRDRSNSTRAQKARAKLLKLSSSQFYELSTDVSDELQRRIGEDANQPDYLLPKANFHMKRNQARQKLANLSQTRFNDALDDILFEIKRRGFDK

Tests used:
[1] = target: Msb4_(22-81)–Spa2CRU (Saccharomyces cerevisiae) (UniProt Q12317+P23201); assay: split reporter; foldback competition assay with full-length Spa2CRU extended at its N-terminus, Split-Ub as in Fig. 1E (transformants transferred onto 5-FOA medium) (Fig. 3B)
[2] = target: full-length Spa2CRU (Saccharomyces cerevisiae) (UniProt P23201); assay: as above
[3] = target: T1, Msb3CRU (Saccharomyces cerevisiae) (UniProt P48566); assay: split reporter; Split-Ub: four independent transformants each, directly transferred from selective medium onto 5-FOA medium (Fig. 1E)
T1 sequence: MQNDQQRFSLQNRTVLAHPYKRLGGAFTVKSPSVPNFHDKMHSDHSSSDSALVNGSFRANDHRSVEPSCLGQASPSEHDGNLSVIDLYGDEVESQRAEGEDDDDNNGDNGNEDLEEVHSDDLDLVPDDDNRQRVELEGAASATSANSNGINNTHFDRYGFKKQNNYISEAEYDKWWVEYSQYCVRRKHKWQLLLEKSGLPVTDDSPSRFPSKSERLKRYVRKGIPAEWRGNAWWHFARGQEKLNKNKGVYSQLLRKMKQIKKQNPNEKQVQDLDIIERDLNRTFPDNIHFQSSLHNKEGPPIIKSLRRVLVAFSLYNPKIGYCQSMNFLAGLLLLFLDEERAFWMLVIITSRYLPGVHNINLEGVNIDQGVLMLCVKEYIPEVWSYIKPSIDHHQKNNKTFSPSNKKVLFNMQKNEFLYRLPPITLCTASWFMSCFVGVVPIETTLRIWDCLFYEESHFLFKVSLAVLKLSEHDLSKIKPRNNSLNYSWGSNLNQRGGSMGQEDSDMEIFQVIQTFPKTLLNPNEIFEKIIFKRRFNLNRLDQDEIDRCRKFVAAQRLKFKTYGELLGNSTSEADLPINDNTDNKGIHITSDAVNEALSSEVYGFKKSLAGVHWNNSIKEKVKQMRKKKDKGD

[4] = target: T2, Msb4CRU (Saccharomyces cerevisiae) (UniProt Q12317); assay: as above
T2 sequence: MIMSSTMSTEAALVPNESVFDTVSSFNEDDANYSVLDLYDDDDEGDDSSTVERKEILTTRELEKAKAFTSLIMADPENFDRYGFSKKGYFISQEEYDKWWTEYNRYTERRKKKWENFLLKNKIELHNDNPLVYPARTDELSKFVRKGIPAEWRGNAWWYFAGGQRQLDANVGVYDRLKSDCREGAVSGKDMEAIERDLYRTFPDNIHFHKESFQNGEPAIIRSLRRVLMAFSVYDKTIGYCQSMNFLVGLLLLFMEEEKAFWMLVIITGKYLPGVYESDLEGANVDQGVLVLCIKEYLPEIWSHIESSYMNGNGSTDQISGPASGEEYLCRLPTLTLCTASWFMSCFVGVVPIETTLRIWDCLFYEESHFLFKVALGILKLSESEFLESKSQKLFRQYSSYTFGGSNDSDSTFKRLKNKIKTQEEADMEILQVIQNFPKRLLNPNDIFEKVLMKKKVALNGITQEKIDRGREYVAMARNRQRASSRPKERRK

[5] = target: SHD1CRU (Saccharomyces cerevisiae) (UniProt P23201); assay: split reporter; foldback competition assay, Split-Ub spotted as in Fig. 1C: SHD1CRU extended at its N-terminus by an FRM-containing stretch that occupies the pocket intramolecularly; loss of the Nub–Msb3 signal on 5-FOA is read as binding of the stretch (Fig. 3C, 7C)
[6] = target: SHD1CRU (Saccharomyces cerevisiae) (UniProt P23201); assay: split reporter; small-scale Split-Ub: diploid cells co-expressing a Nub and a CRU fusion spotted in 10-fold serial dilutions from OD600=1 on SD medium with 5-FOA, 30°C, 2-5 days
[7] = target: T3, Ste5CRU (Saccharomyces cerevisiae) (UniProt P32917); assay: as above
T3 sequence: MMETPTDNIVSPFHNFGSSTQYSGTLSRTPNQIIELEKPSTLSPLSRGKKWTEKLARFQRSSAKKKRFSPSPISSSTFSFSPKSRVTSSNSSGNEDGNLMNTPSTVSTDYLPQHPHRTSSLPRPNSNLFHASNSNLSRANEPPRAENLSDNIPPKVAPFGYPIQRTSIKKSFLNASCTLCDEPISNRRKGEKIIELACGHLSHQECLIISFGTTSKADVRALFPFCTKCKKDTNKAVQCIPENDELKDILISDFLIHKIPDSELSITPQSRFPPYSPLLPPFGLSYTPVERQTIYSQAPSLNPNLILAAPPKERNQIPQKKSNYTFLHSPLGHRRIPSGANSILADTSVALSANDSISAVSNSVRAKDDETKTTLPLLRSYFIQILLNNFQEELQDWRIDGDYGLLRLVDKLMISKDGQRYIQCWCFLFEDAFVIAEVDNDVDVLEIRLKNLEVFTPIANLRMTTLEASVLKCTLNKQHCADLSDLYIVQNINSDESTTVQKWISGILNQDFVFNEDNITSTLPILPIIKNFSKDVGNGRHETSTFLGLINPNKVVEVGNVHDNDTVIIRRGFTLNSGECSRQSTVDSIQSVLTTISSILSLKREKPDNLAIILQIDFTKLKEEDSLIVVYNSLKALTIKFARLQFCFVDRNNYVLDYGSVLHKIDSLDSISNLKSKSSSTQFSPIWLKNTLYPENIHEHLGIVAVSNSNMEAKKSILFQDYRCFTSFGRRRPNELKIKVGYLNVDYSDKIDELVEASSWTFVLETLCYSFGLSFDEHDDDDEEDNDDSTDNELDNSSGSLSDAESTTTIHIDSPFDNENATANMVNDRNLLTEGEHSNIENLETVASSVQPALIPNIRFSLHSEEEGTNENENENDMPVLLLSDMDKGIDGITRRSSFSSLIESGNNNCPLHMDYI

[8] = target: SHD1CRU (Saccharomyces cerevisiae) (UniProt P23201); assay: split reporter; large-scale split-ubiquitin (Split-Ub) array: PMET17-SHD1CRU a-strain mated with a library of Nub-fusion α-strains; diploids as quadruplets on SD medium without methionine with 1 mg/ml 5-FOA and copper sulfate; colony growth indicates interaction
[9] = target: SHD1_(K97D) (CRU fusion) (Saccharomyces cerevisiae) (UniProt P23201); assay: split reporter; small-scale Split-Ub: diploid cells co-expressing a Nub and a CRU fusion spotted in 10-fold serial dilutions from OD600=1 on SD medium with 5-FOA, 30°C, 2-5 days
[10] = target: SHD1CRU with L51A (Saccharomyces cerevisiae) (UniProt P23201); assay: as above
[11] = target: SHD1CRU with L101A (Saccharomyces cerevisiae) (UniProt P23201); assay: as above
[12] = target: SHD1CRU with L48A (Saccharomyces cerevisiae) (UniProt P23201); assay: as above
[13] = target: SHD1CRU with L109A (Saccharomyces cerevisiae) (UniProt P23201); assay: as above

binding [1]: binds
binding [2]: binds
binding [3]: binds
binding [4]: binds
B1: Nub–Pea2 (protein, UniProt P40091 1-420)
chain: MHKFDLELSRRANPLLFSAERYEEYPLKYDELKQYLLSQNPSHPHHNSRPYTSIDYFDYLLYRSKNDESEIDLDKKLVSEFALYYVQKEHLNSDDLNPTLNELLKLQPKSADWYEMMLRILESINTTGIDQLTKENNNSFPNSKRARSSTNMGGTDKFNKGAYHTDKADDDKNEILQELTSFLMSNSIQKGIDIKPIPLDDPVKFLKNGINSILDTCVSLEKNTSSPPISPNAAAIQEEDSSKKLEELETAFSDLQLAHNFLTKQFENDRAEYVQDIEKLTRTNRELQDKLLNNHSNLSKTEKKLHELEQENKELEKANNKLNSSRHNFGMSSPASSPVTWDPSSPSSVGSPTSGSGSRSLSIMTSEFKKVLTSTQRKYEKELSDEREHRFKLERELALLKNAEANTSLALNRDDPPDML

binding [5]: binds
B2: Dse3_(181-240) (domain or fragment, UniProt Q08729 181-240)
chain: SLMQTQTQDCCRKNKYGKSGSEILFDEILSAYENVSTSDSTALNSEIDRIIDICASKQIA

binding [6]: no binding
binding [7]: binds
B3: Nub–Ste7_(Δ119-123) (protein, UniProt P06784)
chain: MFQRKTLQRRNLKGLNLNLHPDVGNNGQLQEKTETHQGQSRIEGHVMSNINAIQNNSNLFLRRGIKKKLTLDAFGDDQAISKPNTVVIQQPQNEPVLVLSSLSQSPCVSSSSSLSTPCSNNFGLSPSSTNSTPSTIQGLSNIATPVENEHSISLPPLEESLSPAAADLKDTLSGTSNGNYIQLQDLVQLGKIGAGNSGTVVKALHVPDSKIVAKKTIPVEQNNSTIINQLVRELSIVKNVKPHENIITFYGAYYNQHINNEIIILMEYSDCGSLDKILSVYKRFVQRGTVSSKKTWFNELTISKIAYGVLNGLDHLYRQYKIIHRDIKPSNVLINSKGQIKLCDFGVSKKLINSIADTFVGTSTYMSPERIQGNVYSIKGDVWSLGLMIIELVTGEFPLGGHNDTPDGILDLLQRIVNEPSPRLPKDRIYSKEMTDFVNRCCIKNERERSSIHELLHHDLIMKYVSPSKDDKFRHWCRKIKSKIKEDKRIKREALDRAKLEKKQSERSTH

binding [2]: no binding
binding [8]: binds
binding [9]: binds
binding [10]: no binding
binding [6]: binds
binding [11]: no binding
binding [12]: no binding
binding [13]: no binding
binding [7]: binds
B4: Nub–Ste7 (protein, UniProt P06784 1-515)
chain: MFQRKTLQRRNLKGLNLNLHPDVGNNGQLQEKTETHQGQSRIEGHVMSNINAIQNNSNLFLRRGIKKKLTLDAFGDDQAISKPNTVVIQQPQNEPVLVLSSLSQSPCVSSSSSLSTPCIIDAYSNNFGLSPSSTNSTPSTIQGLSNIATPVENEHSISLPPLEESLSPAAADLKDTLSGTSNGNYIQLQDLVQLGKIGAGNSGTVVKALHVPDSKIVAKKTIPVEQNNSTIINQLVRELSIVKNVKPHENIITFYGAYYNQHINNEIIILMEYSDCGSLDKILSVYKRFVQRGTVSSKKTWFNELTISKIAYGVLNGLDHLYRQYKIIHRDIKPSNVLINSKGQIKLCDFGVSKKLINSIADTFVGTSTYMSPERIQGNVYSIKGDVWSLGLMIIELVTGEFPLGGHNDTPDGILDLLQRIVNEPSPRLPKDRIYSKEMTDFVNRCCIKNERERSSIHELLHHDLIMKYVSPSKDDKFRHWCRKIKSKIKEDKRIKREALDRAKLEKKQSERSTH
